# Measured values from publication PMC4242493.
# Some of the results follow. The list includes weakly bound sequences.
# Target: MaxL homodimer (UniProt P61244)
# Assay: universal protein-binding microarray (PBM)
# Settings: PBS-based mixture, 10 nM His-tagged protein dimer, 2% milk, 200 ng/uL BSA, 50 ng/uL salmon testes DNA, 0.02% TX-100; detection with Alexa 488 anti-His …; high values mean tight binding; most listed sequences are background and not binding sites; double strand, one strand shown
# Chain of UniProt P61244 (P61244 whole entry): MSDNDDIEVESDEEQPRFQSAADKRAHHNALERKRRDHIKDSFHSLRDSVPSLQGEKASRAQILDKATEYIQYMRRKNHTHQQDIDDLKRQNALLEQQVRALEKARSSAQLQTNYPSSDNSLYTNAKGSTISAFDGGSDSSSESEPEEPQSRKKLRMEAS
row,Sequence,binding signal (normalized occupancy)
1,ATATCGAT,0.0784
2,CTTCGTGC,0.0757
3,CTTGGCGC,0.0674
4,GTGGGGTA,0.0861
5,CTATTCAC,0.083
6,AACACATC,0.0848
7,CCATACCA,0.0838
8,TAATCGTA,0.0765
9,ATAGTGAC,0.0777
10,CATCCTAG,0.0749
11,CCTTTGCA,0.0721
12,CAGTGGGG,0.0757
13,GGGAATCA,0.0756
14,CGCCTCAG,0.0711
15,ACTCTTAG,0.0762
16,AACTGATC,0.0745
17,CGAGGACA,0.0774
18,CTGCGCCC,0.0679
19,GCGTTCAA,0.0757
20,CACCGCCA,0.0767
21,AATTGGCT,0.0714
22,TAGTCACA,0.0887
23,CTAGTCCA,0.0733
24,ACTATGAG,0.0806
25,CCAAGCGA,0.0745

row,Sequence,binding signal (normalized occupancy)
1,CGGAGAAG,0.0684
2,AGGCACCG,0.0732
3,CCTGGTGC,0.0748
4,CTAATTCC,0.0722
5,GTCGGAGA,0.0698
6,ACGCAAGA,0.0753
7,AAACGGGA,0.0751
8,CAGCGAAC,0.0694
9,AAGGTGGT,0.0778
10,AGGTAGCC,0.0711
11,GGGTAAAA,0.0765
12,CAGACGCA,0.0669
13,GCCTACAC,0.083
14,CTGTGGAC,0.0726
15,AGAAGCGG,0.0695
16,GAGCATAC,0.0789
17,CTAATAAA,0.0778
18,GGAGATCC,0.0746
19,TCTACGCA,0.0731
20,AAAGGAAT,0.0719
21,AACGCTAC,0.0825
22,AGATACTG,0.0752
23,AATATGAG,0.0831
24,CTGATGTC,0.0737
25,AAAGTTGG,0.0693

row,Sequence,binding signal (normalized occupancy)
1,ATATTAGA,0.0864
2,CACGACAC,0.0789
3,CGTCAAAA,0.073
4,CTTGAAGA,0.0703
5,CGCCGTGA,0.0741
6,GAAATCGC,0.0673
7,CTGCCGTC,0.0702
8,ACCTGTAT,0.0849
9,AGTAGTGG,0.0787
10,AATACCGC,0.0734
11,CTGCTGAC,0.0705
12,AGTAGCGA,0.0676
13,ATGGCAAC,0.0773
14,CTTTAGGA,0.0753
15,GCGCCACA,0.0784
16,GAGGTCCC,0.0679
17,GGCCTTAC,0.0719
18,CCTCAGCG,0.0718
19,ACCGCGTC,0.0706
20,CCCGAGTA,0.0705
21,CGTGTTGC,0.0822
22,AAACGGCA,0.0703
23,GTTTACAA,0.0742
24,AATCGGGA,0.0782
25,CATAGATG,0.0809

row,Sequence,binding signal (normalized occupancy)
1,ACACGACT,0.0807
2,ACTTCGAA,0.0685
3,GGCCCCCC,0.0687
4,ATAGACTG,0.0745
5,CGGCTCGA,0.0657
6,ATGGAGCA,0.0766
7,AACTAAAT,0.0763
8,GACCTCGA,0.073
9,ATACTGGC,0.0812
10,AAGCGCTA,0.0673
11,ACGATTCC,0.0769
12,CACCTAGA,0.0748
13,AGACGCTC,0.0708
14,CCTCAGTC,0.0681
15,AAATAACA,0.0817
16,CCGAATAA,0.0678
17,CACGCTAA,0.0891
18,ACCATCAA,0.0729
19,ATTGCACA,0.0792
20,CGGGGGCA,0.0747
21,CTTCCACA,0.0773
22,ATGGTATG,0.0796
23,AGGACGTG,0.0736
24,GTCCCCTA,0.0697
25,AAACACAG,0.0769

row,Sequence,binding signal (normalized occupancy)
1,ACAGTGAA,0.07
2,ATCGTGGG,0.0895
3,GCGCTAGA,0.0704
4,GTCCGATA,0.0757
5,CAGGTTAC,0.0725
6,GTCCTACA,0.0752
7,AAGGTACA,0.0766
8,GACATCTC,0.078
9,ATAGACAG,0.0718
10,GAACCCGA,0.0696
11,CTAATTAA,0.0756
12,ACTCCGTC,0.0703
13,GATAACGC,0.0726
14,CTCTAAGC,0.0737
15,CATTCGCG,0.0781
16,AAGGGTGG,0.0818
17,CATGCGCG,0.11
18,ACGTACGC,0.0764
19,AATGGAAA,0.0735
20,AAAGGGAC,0.0699
21,GCCAATCA,0.0763
22,CATACCAC,0.0898
23,AAAGTAGG,0.0719
24,ACCTGCCT,0.0834
25,GATCGCCA,0.0755

row,Sequence,binding signal (normalized occupancy)
1,ACACATTG,0.102
2,AGATTACT,0.0727
3,AGGTGGCC,0.0765
4,CCAGGATC,0.0721
5,AGGCTCCG,0.0686
6,ATTCGCAA,0.0766
7,AACTGGCG,0.0672
8,CTCGGATC,0.0718
9,TAGTCCCA,0.0701
10,ACTCACCT,0.0804
11,AGTCCAGG,0.0704
12,ATGATCAA,0.0816
13,ATCTACTA,0.0809
14,TCCCCTCA,0.0785
15,ACCGTACT,0.0741
16,ATCGCTAA,0.0736
17,TAGTTATA,0.0872
18,ATGTTTAG,0.0823
19,AAGCGAGA,0.0699
20,AAATGTGC,0.0962
21,CCAGGCGG,0.0792
22,ACTGTCTG,0.0718
23,ACTAACCC,0.078
24,CCAGTCAC,0.081
25,AAGGGCCT,0.0719

row,Sequence,binding signal (normalized occupancy)
1,CTGTTACA,0.0803
2,AATAGCGG,0.0744
3,GATGACTA,0.0757
4,ACAGGGCA,0.0767
5,AATGACGC,0.078
6,CGTGTAGA,0.0822
7,ACAGGACA,0.0739
8,AAACAAAT,0.0815
9,AAATTTGG,0.0716
10,CAAAGGTA,0.0754
11,AAGCCCAG,0.0662
12,GCGGGTTA,0.0766
13,GATTATCC,0.0804
14,TGGTCGAA,0.0778
15,GCCGAATA,0.0712
16,GATCGTCA,0.0729
17,AGGCTATA,0.075
18,ATGCTCGC,0.0825
19,AGTTAGCC,0.0667
20,ACGTAGCA,0.0813
21,TCATACGA,0.0777
22,CATGGTTA,0.0903
